According to PubChem BioAssay AID1159614 (National Center for Advancing Translational Sciences (NCATS), 2016):
Among all 45,000 compounds or so, about 65 (0.1%) were called active. The call rests on the fitted dose curve; in most records, active means well fitted activation curve with a large enough effect; inconclusive means small, poorly fitted or top-dose-only effect; inactive means no such curve, though single readings can be large or run the other way. Some of the results follow.

These molecules were tested against Galactocerebrosidase (Homo sapiens) (UniProt P54803) (assay: A Novel Cell-Based Assay to Identify Small Molecules for B -Galactocerebrosidase). Details: 145M-Twi-hGALC-G270D cells (Twitcher mouse brain line with human GALC G270D), HMU-beta-Gal fluorescence, 48 h; series mostly up to 57.5 µM; activation: at the top concentration.
Sequence of UniProt P54803 (P54803 whole entry, looked up): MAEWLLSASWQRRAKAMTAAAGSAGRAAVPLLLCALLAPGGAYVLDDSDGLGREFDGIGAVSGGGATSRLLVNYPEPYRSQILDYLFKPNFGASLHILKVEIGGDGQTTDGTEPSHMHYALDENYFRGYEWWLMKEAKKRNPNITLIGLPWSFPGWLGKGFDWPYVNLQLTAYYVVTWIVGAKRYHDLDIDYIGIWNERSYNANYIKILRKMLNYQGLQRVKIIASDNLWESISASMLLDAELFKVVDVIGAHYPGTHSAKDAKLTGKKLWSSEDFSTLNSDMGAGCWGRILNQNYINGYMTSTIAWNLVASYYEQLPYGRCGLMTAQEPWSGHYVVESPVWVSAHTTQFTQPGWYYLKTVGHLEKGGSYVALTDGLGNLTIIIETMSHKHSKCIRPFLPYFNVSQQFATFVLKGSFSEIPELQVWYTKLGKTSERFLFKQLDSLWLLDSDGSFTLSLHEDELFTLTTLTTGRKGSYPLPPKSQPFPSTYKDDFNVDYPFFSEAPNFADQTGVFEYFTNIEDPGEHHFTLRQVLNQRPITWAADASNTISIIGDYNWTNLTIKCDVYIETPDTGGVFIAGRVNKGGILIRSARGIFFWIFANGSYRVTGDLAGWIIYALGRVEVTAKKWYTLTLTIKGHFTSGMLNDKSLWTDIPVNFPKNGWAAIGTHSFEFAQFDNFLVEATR
Summary of the method: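 Brain-derived Twitcher mouse 145M-Twi cells stably expressing human GALC-G270D or wild-type GALC, treated live, then residual GALC activity read by fluorescence of HMU-b-Gal substrate (0.1 mM final) in citrate-phosphate buffer pH 5.2 with sodium taurocholate. Signal increase indicates enhancement.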
Further: 0% is about no effect; nearly all actives have a fitted effect of over 65% in size.

Row | SMILES | activation
1 | CCCCOc1ccc(C(=O)Nc2ccc(-c3nc4ccccc4s3)cc2C)cc1 | inactive: -3.52%
2 | O=C(CN1C(=O)CCc2cc(S(=O)(=O)N3CCOCC3)ccc21)NCc1ccc(F)cc1 | inactive: -2.94%
3 | CCc1cccc(NC(=O)Nc2csc3c2CCCC3)c1 | inactive: -8.72%
4 | O=C(COc1ccccc1F)Nc1ccc(-c2nc3ccccc3s2)cc1 | inactive: -21.1%
5 | Cc1ccc(CNC(=O)c2ccc3c(c2)nc(C)n3-c2cc(C)cc(C)c2)cc1 | inactive: 3.25%
6 | CCc1ccc(NC(=O)CN2C(=O)C3(SCC(=O)N3c3ccccc3)c3ccccc32)cc1 (configuration not stated) | inactive: -7.29%
7 | COc1ccc(NC(=O)c2sc3nc(C)c(C(=O)Nc4ccc(C)cc4C)c(-c4ccc(C)o4)c3c2N)cc1 | inactive: -10.4%
8 | Cc1ccc(Nc2nc(C)cc(C)n2)c(C(=O)O)c1 | inactive: -31.8%
9 | COc1ccc(NC(=O)Cn2nc(-c3ccncc3)ccc2=O)cc1Cl | inactive: -6.08%
10 | CC1(C)CC(=O)c2cc(-c3nc(-c4ccc(Cl)cc4)cs3)c(=O)n(-c3ccc(Cl)cc3)c2C1 | inactive: -10.2%
11 | Cc1ccc(Cl)cc1NC(=O)CSC1=Nc2ccccc2C2=NC(Cc3ccccc3)C(=O)N12 (configuration not stated) | inactive: -14.3%
12 | Cc1ccc(Cn2ccnc2SCC(=O)NCc2ccc(F)cc2)cc1 | inactive: -8.57%
13 | COc1ccc(OCCCCn2c(C3CC(=O)N(c4cccc(Cl)c4)C3)nc3ccccc32)cc1 (configuration not stated) | inactive: 21.1%
14 | COc1ccc(NC(=O)CSc2nc3ccccc3n2CC(=O)N(C)c2ccc(F)cc2)cc1 | inactive: -6.09%
15 | C#CC(C)(CC)NC(=O)c1cnn2c(C(F)F)cc(-c3ccccc3OC)nc12 (configuration not stated) | inactive: -13.6%
16 | Cc1cc(C)n(CCc2nc3c4ccccc4nc(N4CCN(c5ccccc5F)CC4)n3n2)n1 | inactive: -6.13%
17 | COc1ccc(CCNc2ncnc3c2cnn3-c2cccc(Cl)c2)cc1 | inactive: -3.09%
18 | CC(C)CCNC(=O)c1ccc2c(c1)NC(=O)C(CS(=O)(=O)Cc1cccc(Br)c1)N2 (configuration not stated) | inactive: 18.3%
19 | Cc1ccc(NC(=O)/C(C#N)=C/c2ccc(C)o2)cc1 | inactive: -17.8%
20 | CCOc1ccc(NC(=O)c2cn(C)c(=O)c3cc(OC)c(OC)cc23)cc1 | inactive: -6.33%
21 | CCOC(=O)C1CCN(CC(=O)N2CCCc3c2c(=O)oc2ccc(OCc4ccccc4)cc32)CC1 | inactive: -13.5%
22 | CC(=O)Oc1cccc(O)c1 | inactive: -13.9%
23 | COc1ccc(-c2onc(C)c2C)cc1S(=O)(=O)N(C)Cc1ccco1 | inactive: -12.3%
24 | CCOC(=O)C1CCC(CN(Cc2ccc(Cl)cc2)S(=O)(=O)c2ccc(Br)cc2)CC1 (configuration not stated) | inactive: 5.53%
25 | CN1C(=O)C2(SCC(=O)N2c2cccc(C(F)(F)F)c2)c2ccccc21 (configuration not stated) | inactive: 3.22%

Row | SMILES | activation
26 | CCCN1CCN(CCNC(=O)Nc2ccc(OC)c(OC)c2)CC1 | inactive: -6.81%
27 | CCS(=O)(=O)N1CCc2cc(C(=O)NCCc3ccccc3)ccc21 | inactive: -9.13%
28 | CCCc1c(OCCCCc2nn[nH]n2)ccc(C(C)=O)c1O | inactive: -14%
29 | CCCN(c1ccccc1CC)S(=O)(=O)c1ccc2c(c1)CC(C)N2C(=O)C1CC1 (configuration not stated) | inactive: -9.85%
30 | CCN(CCCNC(=O)c1cc2cc3ccc(C)cc3nc2s1)c1ccccc1 | inactive: -1.42%
31 | CCS(=O)(=O)N1CC(=O)N(c2cccc(Cl)c2C)C(C)(C(=O)NC2CCCCC2)C1 (configuration not stated) | inactive: 3.54%
32 | COc1ccc(-c2nc(CSCC(=O)N3CCN(c4ccc(OC)cc4)CC3)c(C)o2)cc1 | inactive: -0.412%
33 | Cc1ccc(NC(=O)c2oc3ccc(S(=O)(=O)N(C)C4CCCCC4)cc3c2C)cc1Cl | inactive: -4.26%
34 | O=S(=O)(c1cccc(F)c1)N1CCC(c2nc3ccccc3s2)CC1 | inactive: -31.7%
35 | COCCNC(=O)CCCN1C(=O)c2ccccc2Sc2ncccc21 | inactive: -7.98%
36 | Cc1nnc(SCC(=O)Nc2ccc(Br)cc2)[nH]c1=O | inactive: 2.75%
37 | COc1cccc(-c2nc(CSCC(=O)NCCc3ccc(Cl)cc3)c(C)o2)c1 | inactive: -2.3%
38 | CC(=O)N1CCc2cc(S(=O)(=O)NC(CC(C)C)C(=O)NCc3ccccc3)ccc21 (configuration not stated) | inactive: -11.4%
39 | O=c1c(=O)n(-c2cccc(Cl)c2)ccn1Cc1cccc(F)c1 | inactive: 6.22%
40 | COc1cccc2c1cc1c(=O)n(CC(=O)NC3CC3)nc(C)n12 | inactive: -17.4%
41 | CCOC(=O)c1cc(-c2ccccc2)n(CC(=O)N(C)c2ccc(OC)cc2)c1C | inactive: -19.5%
42 | CCOc1ccc(NC(=O)C(NC(=O)C2CCC(C)CC2)C(C)C)cc1 (configuration not stated) | inactive: -16.5%
43 | CCCCC(CC)CNC(=O)CCCn1c(=O)[nH]c2ccsc2c1=O (configuration not stated) | inactive: 1.4%
44 | Cc1ccc(-c2nc(N3CCN(c4ccccc4Cl)CC3)c3ccccc3n2)cc1 | inactive: -11.6%
45 | COc1cc(-c2nc(Cn3nnc(C(=O)Nc4cc(C)cc(C)c4)c3C)c(C)o2)cc(OC)c1OC | inactive: -0.386%
46 | COc1ccc(C)cc1Nc1nc(-c2cccc(Cl)c2)c2c(n1)-c1ccccc1OC2 | inactive: 0.579%
47 | CO[C@@H]1[C@@H](OC(N)=O)[C@@H](O)[C@H](Oc2ccc3c(O)c(NC(=O)c4ccc(O)c(CC=C(C)C)c4)c(=O)oc3c2C)OC1(C)C | inactive: -16.7%
48 | CCCCc1nc2ccccc2n2c(-c3ccc(C)cc3)c3c(=O)n(C)c(=O)n(C)c3c12 | inactive: -16.3%
49 | Nc1c(-c2nc(-c3ccc(Cl)cc3)cs2)c2ccccn2c1C(=O)c1ccc2c(c1)OCO2 | inactive: -1.01%
50 | Cc1c(C)n(Cc2ccc(Cl)cc2)c2ccc(C(=O)NCCc3ccc(S(N)(=O)=O)cc3)cc12 | inactive: 0.183%

Row | SMILES | activation
51 | COCCCNC(=O)c1cc2c(=O)n3cccc(C)c3nc2s1 | inactive: -6.19%
52 | Cc1cc(N2CCCCC2)nc2ccc(NC(=O)c3cccc(F)c3)cc12 | inactive: -8.51%
53 | CSc1cccc(NC(=O)CN(c2ccccc2)S(=O)(=O)N(C)C)c1 | inactive: -14%
54 | CC1CCN(S(=O)(=O)c2ccc3c(c2)N(CC(=O)NC(C)c2ccccc2)C(=O)CO3)CC1 (configuration not stated) | inactive: -5.6%
55 | CCOc1ccc(Nc2nc3ccccc3n3c(CC)nnc23)cc1 | inactive: -11.1%
56 | CCCN1CCN(CCCNC(=O)c2cnn(-c3ccc(F)cc3)c2-n2cccc2)CC1 | inactive: -1.93%
57 | O=S(=O)(c1cccc(C(F)(F)F)c1)n1c(/C=C/c2ccccc2)nc2ccccc21 | inactive: -18.5%
58 | O=C(Cn1c(=O)n(-c2ccccc2)c(=O)c2sc3ccccc3c21)N1CCCC1 | inactive: -15.7%
59 | CCCc1nnc(NC(=O)Cc2coc3cc(C)cc(C)c23)s1 | inactive: -9.83%
60 | Cc1ccc(C(=O)N2CCc3cc(CNC(=O)COc4ccccc4)ccc32)cc1 | inactive: -12.8%
61 | Cc1ccc2oc(=O)c3cnn(CC(=O)Nc4cccc(C(F)(F)F)c4)c3c2c1 | inactive: -20.6%
62 | COc1ccc(CCNC(=O)c2nnc(Cc3ccc(Cl)cc3)o2)cc1OC | inactive: -11.8%
63 | O=C(NCC(c1ccco1)S(=O)(=O)c1ccc(Cl)cc1)c1ccccc1F (configuration not stated) | inactive: -13.1%
64 | COc1ccc(-c2nn3c(=O)cc(CN4CCN(C(=O)Nc5ccc(C)c(Cl)c5)CC4)nc3s2)cc1 | inactive: -17.4%
65 | CC(C)c1ccc(NC(=O)CN2C(=O)COc3ccc(S(=O)(=O)Nc4ccccc4)cc32)cc1 | inactive: -36.4%
66 | O=[N+]([O-])c1cc(-c2nc(-c3cccnc3)no2)ccc1NCc1ccccc1 | inactive: -5.54%
67 | CC(C)OCCCNC(=O)CCCn1c(SCC(=O)c2ccc(F)cc2)nc2c(sc3ccccc32)c1=O | inactive: -2.9%
68 | O=C(Nc1ccc(Br)cc1)C1CCN(S(=O)(=O)c2cccc3nsnc23)CC1 | inactive: -8.9%
69 | Cc1c(C(=O)NCc2ccccc2)sc2nc3n(c(=O)c12)CCC3 | inactive: -11.7%
70 | CCCOC(=O)c1ccc(NC(=O)Cc2csc(C)n2)cc1 | inactive: -3.73%
71 | Cc1ccc(NS(=O)(=O)c2ccc3[nH]c4c(c3c2)CCCCCC4)cc1Cl | inactive: -33.8%
72 | COCC(=O)N1c2nc(C(C)C)nn2C2(CCCCC2)[C@@H]2CCCC[C@@H]21 | inactive: 9.5%
73 | CSc1nc2sc3c(c2c(=O)n1-c1ccccc1C)CCCC3 | inactive: -10.8%
74 | CCC(=O)N1CCc2cc(Br)cc(S(=O)(=O)NCc3ccc(Cl)cc3)c21 | inactive: 6.68%
75 | Cc1cccc(N2C(=O)CSC23C(=O)N(Cc2cccc(C(F)(F)F)c2)c2ccccc23)c1 (configuration not stated) | inactive: -25%

Row | SMILES | activation
76 | CCN(c1ccccc1)c1nnc(NC(=O)Nc2cccc(Br)c2)s1 | inactive: -8.51%
77 | O=C1CC(c2nc3ccccc3n2CCCOc2ccccc2)CN1c1ccc(F)cc1 (configuration not stated) | inactive: -36.6%
78 | Cc1cc(C)cc(-n2ccn(CC(=O)Nc3ccccc3C(F)(F)F)c(=O)c2=O)c1 | inactive: -12%
79 | CN(C)CCNC(=O)CCCN1C(=O)c2cccnc2Oc2ccc(Cl)cc21 | inactive: -12.9%
80 | Cc1ccc(N2CC(C)Cn3c2nc2c3c(=O)n(CC(=O)O)c(=O)n2C)cc1 (configuration not stated) | inactive: -8.62%
81 | C=Cc1ccc(CSc2nc(-c3ccccc3Cl)nc3c2Cc2c(CO)cnc(C)c2O3)cc1 | inactive: -8.39%
82 | Cc1nc(N2CCCC2)c2c(C(=O)N3CCN(c4cccc(Cl)c4)CC3)c(C)oc2n1 | inactive: -6.21%
83 | COc1ccc(N2CCN(C(=O)c3ccc(CS(=O)(=O)c4ccc(Br)cc4)o3)CC2)cc1 | inactive: -8.94%
84 | CCOc1ccc(C2c3c(oc4ccc(C)cc4c3=O)C(=O)N2Cc2ccc3c(c2)OCO3)cc1OC (configuration not stated) | inactive: -17.7%
85 | Cc1ccc(CNC(=O)c2ccc(CSCc3ccc(C)cc3)o2)cc1 | inactive: 3.04%
86 | COCCCNC(=O)CSc1c2c(nc3ccc(Cl)cc13)CCCC2 | inactive: -3.75%
87 | CCN(c1ccc(OC)cc1)S(=O)(=O)c1nnc(NC(=O)c2ccccc2Cl)s1 | inactive: -7.94%
88 | Cc1ccc(OCC(=O)Nc2ccc3nc(SCC(=O)N4CCCC4)sc3c2)cc1 | inactive: -13%
89 | CNC(=O)c1ccc2c(c1)N=C(C)c1cc(C)ccc1S2 | inactive: -15.9%
90 | O=C(CSc1nc2cc(C(=O)NC3CCCC3)ccc2c(=O)n1CC1CCCO1)c1ccc(F)cc1 (configuration not stated) | inactive: -12.7%
91 | COc1cc(OC)c(NC(=O)CSc2nccn2C)cc1Cl | inactive: -22.1%
92 | COc1ccc2oc(-c3ccc(C)c(NC(=O)c4cccnc4)c3)nc2c1 | inactive: -19.2%
93 | Cc1ccc(CNC(=O)c2ccc(-n3c(C)cc4c3CCCC4)cc2)cc1 | inactive: -17.4%
94 | CC1CCN(c2oc(-c3cccs3)nc2S(=O)(=O)c2ccc(Cl)cc2)CC1 | inactive: -20.5%
95 | Cc1cccc(CSc2cn(CC(=O)N3CCCCC3)c3ccccc23)c1 | inactive: -34.4%
96 | Cc1cc(C)c2sc(N(Cc3cccnc3)C(=O)CCS(=O)(=O)c3ccccc3)nc2c1 | inactive: -5.33%
97 | CC(C)(C)C1CCc2oc3ccc(NS(=O)(=O)c4cc(Cl)ccc4Cl)cc3c2C1 (configuration not stated) | inactive: -11.5%
